Nonsense suppression data for 167 variants are collected here from the RNAGym collection of RNA variant scans (doi:10.1101/gad.245936.114).

This sample is rich in variants without activity.

B1: tRNA (parent)
chain: CUCUCGGUAGCCAAGUUGGUUUAAGGCGCAAGACUUUAAUUUAUCACUACGAAAUCUUGAGAUCGGGCGUUCGACUCGCCCCCGGGAGAUUUUUUCCUCGAGCAA

The data set covers variants of B1. Briefly: nonsense suppression (GFP-seq) (ratio to wild type); higher = more function; SUP4oc tRNA, yeast GFP reporter sort-seq. The essentials:
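Each variant's nonsense suppression (GFPSEQ) is a cell-share-weighted bin median GFP/RFP relative to the unmutated parent tRNA. Yeast with genome-integrated tRNA variants from a ~3% random-mutation library, a galactose-driven GFP ochre reporter and RFP were grown in raffinose/galactose medium with 80 mg/L adenine, then sorted into GFP/RFP bins for Illumina sequencing. Variants needed ≥100 reads and ≥30 cells.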
As for G32C U57G A60C, the nonsense suppression was not above 0.026. Under U2A A13C A31U stands not above 0.026; under C11A A31G U76G, not above 0.026. Take A13G A24G C27A A60G C81U: the nonsense suppression was not above 0.026. As for G25C A31U, the nonsense suppression was not above 0.026.

As for C12G U22G C83U G86C, the nonsense suppression was not above 0.026. Under U2A G28U G73U stands not above 0.026; under A24G G73A A89C, not above 0.026. Next, A14G A24U G59A: not above 0.026; U55G U58C A60G C81G G85A: not above 0.026.

As for A31U A74U, the nonsense suppression is not above 0.026. Regarding A13G A33U C77A, the nonsense suppression is not above 0.026. Regarding A33C U71G G86A, the nonsense suppression was not above 0.026.

For C11G U71G C83U A87G G88A, the nonsense suppression was not above 0.026. Next, C5A A14U: not above 0.026; U4C G73A: 1.04; G61A G65C G69A C80U: not above 0.026. Next, U17G A54C: 0.64; U2A U57G: not above 0.026; U8G G18U: not above 0.026. Next, G7U U21G U70A A89G: not above 0.026; C5G G6U: not above 0.026. With C12G A31C G59U, the nonsense suppression is not above 0.026.

In the case of A13U A14U C27G A60C, the nonsense suppression is not above 0.026.

On to U8C G32U G84C, for which the nonsense suppression is not above 0.026. Next, A14G G18A U70G A87U: not above 0.026. Under G10U A60C G61A C72A G88U stands not above 0.026. Next, C3G A14C U35C A60G: not above 0.026; U4C C11A U63C: not above 0.026; G84A: not above 0.026. With A31C C77A G88A, the nonsense suppression is not above 0.026. Under C29U G85U stands 0.0262; under G7U, not above 0.026; under G78A C81U A89G, not above 0.026.

For G19U A60G, the nonsense suppression was not above 0.026.

On to U55A C72G, for which the nonsense suppression is not above 0.026. Under U2A G6C A30U stands not above 0.026.

With C3A G15U U16G G18A G19C G26U, the nonsense suppression was not above 0.026. Next, G19U A31U C77A: not above 0.026; G67A G86U: not above 0.026; C12U G59C: not above 0.026. Next, A30C C68A C79G: not above 0.026; C56U A62G U63C: not above 0.026; A30G A31G U76C: not above 0.026. Next, U55C G67A C80U: not above 0.026; U22C A33C C34A C81A: not above 0.026; G7U U35C U57C U70A C80U G88U: not above 0.026.

Regarding U57G U70A G86U, the nonsense suppression is not above 0.026. Next, C29A A54U C83A: not above 0.026; C5G G18C G26U A31C C56A U63C: not above 0.026. Turning to A54C A74C, the nonsense suppression was not above 0.026. As for C1G U16G G66U, the nonsense suppression was not above 0.026. As for A9G G10U C12A G65C, the nonsense suppression was not above 0.026. Regarding U4G C12G G15U A24G G86C, the nonsense suppression is not above 0.026. Under C3G G73A C79U A87C stands not above 0.026.

As for C1A G65A A87C, the nonsense suppression was not above 0.026. Next, G18C G65C C82A: not above 0.026; G7A A14C G59C C68G: not above 0.026; A54C U57C U63G C64G A74C: not above 0.026. Next, U21C A74G: not above 0.026; A13C A23U: not above 0.026. For the variant A30G U58A, the nonsense suppression was not above 0.026. Under C1G A9G A31G C34G G59C stands not above 0.026; under A9U G25C U55G U58C G61A, not above 0.026.

On to A23U A62C G69A C72G, for which the nonsense suppression is not above 0.026.

Consider U35G G88U, for which the nonsense suppression was not above 0.026.

Turning to U20C A24C, the nonsense suppression stood at 0.249. Next, A9G U55C G69C U71A C80G: not above 0.026; U8C A13G: not above 0.026; C5G A31C: not above 0.026.

Consider A54U C79U, for which the nonsense suppression came out at 0.571. U20C A30G: the nonsense suppression was found to be 0.129.

Consider U17A C80A, for which the nonsense suppression is not above 0.026. U70C C75A: the nonsense suppression was not above 0.026. Next, U2A G26U: not above 0.026; C1A A54G U58C U71C: not above 0.026; U8C C29U G66U: not above 0.026. Under C11G U57G A62C stands not above 0.026. Next, G7A A9G A14U: not above 0.026. As for C5G G25C G28U U58A, the nonsense suppression was not above 0.026. Next, C11U G26U U71G: not above 0.026. Next, U2G G7C G61C: not above 0.026.

With G32C C56G U58C G59A A60U G78U, the nonsense suppression is not above 0.026. Under A60C C75U G86C stands not above 0.026; under G18C G59C C72G, not above 0.026; under U2G A14U U20C C27A G85U, not above 0.026. Next, G6C A13U A14G U20C: not above 0.026; C34U G59A: not above 0.026; C5U A23G A54G G61A: not above 0.026. Under A62G G65A G67A C80U C82G stands not above 0.026; under C5A C29U A31U A62U U76A, not above 0.026; under U20A U22G G32U C56U C79G, not above 0.026. In the case of C29G A54G, the nonsense suppression was not above 0.026. With A62C U76C, the nonsense suppression is not above 0.026. Next, G32U C77G: not above 0.026. Under U8G A54C U58G C72A stands not above 0.026; under U2G C11U G15C U70C, not above 0.026. Next, G18C G73C: not above 0.026; G85C A87U: not above 0.026. With G15A G59C A87C, the nonsense suppression was not above 0.026. Under U58C C80G stands not above 0.026; under U63G G78C, not above 0.026; under U8C C27A U57G U76C, not above 0.026. For G10A A14C C82A, the nonsense suppression was not above 0.026. Next, G18C G28A U35A C68A: not above 0.026.

As for A9G A13G U22G C34A C83G, the nonsense suppression is not above 0.026. Under C27G G73U stands not above 0.026; under C5A A60C A62U, not above 0.026; under C5U C11U G66A, not above 0.026. On to A33C C34G, for which the nonsense suppression was not above 0.026.

On to G59A C75A, for which the nonsense suppression came out at 0.717.

In the case of A33G G86C, the nonsense suppression is 0.0374.

Regarding A9C C12A U58A A62G, the nonsense suppression was not above 0.026. Under C5U G66U G78A stands not above 0.026. Next, U20G A23C A62G: not above 0.026; G15U G25C: not above 0.026. Next, A9C C12A U22C C75A: not above 0.026; C12A G65A: not above 0.026; A30G A89U: 0.0271. As for C1G A14U C77U, the nonsense suppression was not above 0.026. As for U4C A24G G66C C68U, the nonsense suppression was not above 0.026. Next, U55A G61C A62G G78U: not above 0.026; U63A C68A: not above 0.026; G10A A89C: not above 0.026.

As for G26C C80A, the nonsense suppression was not above 0.026. Next, C27A G32A U35G G73C C80U: not above 0.026; G19A A23C G85U: not above 0.026; A33U C56U: not above 0.026. Under U2A U35A U71G G86A stands not above 0.026; under G32C U58A C82G, not above 0.026; under G67A C83G, not above 0.026. Next, U8G A33G C34A U58G: not above 0.026; C3U A14G C80G: not above 0.026.

For the variant G73U C75U G78C C81G, the nonsense suppression is not above 0.026. Next, G7U U20A G32U G84C: not above 0.026; U16G A62U C72G: not above 0.026; C11G G61A G67C C68U G88U: not above 0.026. Next, G7U G78U: not above 0.026; A9C A33G G59C: not above 0.026.

Turning to G7A C12U A60U U70C, the nonsense suppression is not above 0.026. Under A24U A33G C79A stands not above 0.026; under G18U U63G, not above 0.026. Next, C3G G10C C11A A62G U63A: not above 0.026. Under C11G C56G G85A stands not above 0.026. On to G32A G61C G67U C72U, for which the nonsense suppression was not above 0.026.

On to G65A C82A, for which the nonsense suppression was not above 0.026.

For the variant U16G U57A C64U G66U G69A, the nonsense suppression was not above 0.026.

As to C1A C75G, the nonsense suppression was not above 0.026.

For the variant A14C U35G, the nonsense suppression is not above 0.026. Next, A60U G69U C83A G88U: not above 0.026; U8C U55G: not above 0.026; A14G A31U C83G G85U: not above 0.026. Under A62C G73C U76C G78C stands not above 0.026; under G18A C64A U71C C75G, not above 0.026. Consider U16C G67U U71C A74C, for which the nonsense suppression was not above 0.026. Under A14G U16A U20A G59U U63G U70G stands not above 0.026; under C12A A60U A62C G65A G78C, not above 0.026; under C27U A62U, 0.0346. Under A9C G15A C34U C83G stands not above 0.026; under G28C C34G C80G, not above 0.026; under A14G U21G, not above 0.026. Next, G32U G59C G78C: not above 0.026; U22A G28U A54U U70G A87C: not above 0.026. As to C3U G65A, the nonsense suppression is not above 0.026.

Take U16A C68U G84U: the nonsense suppression is not above 0.026.

Regarding U22G G25A C34U U70C A74G, the nonsense suppression was not above 0.026. For the variant G67A C72U, the nonsense suppression was not above 0.026.
